According to a collection of fitness landscapes (doi:10.1016/j.celrep.2020.107928):
Over roughly 81,000 sequences, “one-hybrid fitness for binding NBS DNA” has its median near -0.1; the highest 2% begin near 0.36. The list shows a part of the results.

B1: Caulobacter ParB omega fusion; a variant is named by its letters at X, in order, B8GW30 (parent)
chain: MESVVVGEPGMSEGRRGLGRGLSALLGEVDAAPAQAPGEQLGGSREAPIEILQRNPDQPRRTFREEDLEDLSNSIREKGVLQPILVRPSPDTAGEYQIVAGERAWRAAQRAGLKTVPIMVRELDDLAVLEIGIIENVQRADLNVLEEALSYKVLMEKFERTQENIAQTIGKSXSHVANXMRLLXLPDEVQSYLVSGELTAXHARAIAAAADPVALAKQIIEGGLSVRETEALARKAPNLSAGKSKGGRPPRVKDTDTQALESDLSSVLGLDVSIDHRGSTGTLTITYATLEQLDDLCNRLTRGI

Variants of: B1
Test: one-hybrid fitness for binding NBS DNA (the Noc-binding site; scaled: cognate 1, non-cognate 0); higher = stronger binding
Details: with NBS DNA site
How it was run: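 The reporter was HIS3, with the binding site 19 bp from the promoter, in E. coli USO used for bacterial one-hybrid selection of Caulobacter ParB libraries with four specificity codons randomised. Growth was on M9 lacking histidine, with 0.1 mM IPTG and 5 mM 3-AT, for 48 hours at 37°C. Illumina sequencing covered plasmids before and after selection; three replicate libraries were pooled and variants with under 10 reads dropped. A fitness score is the log change in variant-to-wild-type read ratio, rescaled to the cognate and non-cognate references.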

Row | Variant | one-hybrid fitness for binding NBS DNA
1 | VDNG | ≤ 0.2
2 | KSMT | ≤ 0.2
3 | LPQG | ≤ 0.2
4 | SPVI | ≤ 0.2
5 | TLWM | ≤ 0.2
6 | APPC | ≤ 0.2
7 | GQTC | ≤ 0.2
8 | ANDE | ≤ 0.2
9 | MCNR | ≤ 0.2
10 | ILET | ≤ 0.2
11 | HHVR | ≤ 0.2
12 | NSLG | ≤ 0.2
13 | NVEF | ≤ 0.2
14 | PMKW | ≤ 0.2
15 | ISYC | ≤ 0.2
16 | MKSH | ≤ 0.2
17 | KLKA | ≤ 0.2
18 | NSRF | ≤ 0.2
19 | HRLP | ≤ 0.2
20 | VTYC | ≤ 0.2
21 | YENN | ≤ 0.2
22 | ENYS | ≤ 0.2
23 | DRNA | ≤ 0.2
24 | FPTA | ≤ 0.2
25 | TGFS | ≤ 0.2
26 | IPNT | ≤ 0.2

Row | Variant | one-hybrid fitness for binding NBS DNA
27 | DYKV | ≤ 0.2
28 | YIHV | ≤ 0.2
29 | SGPM | ≤ 0.2
30 | QISM | ≤ 0.2
31 | TDER | ≤ 0.2
32 | PSCC | ≤ 0.2
33 | RGST | ≤ 0.2
34 | LGHG | ≤ 0.2
35 | TEVF | ≤ 0.2
36 | FSPN | ≤ 0.2
37 | VELR | ≤ 0.2
38 | HLRN | ≤ 0.2
39 | SVYC | ≤ 0.2
40 | ARDT | ≤ 0.2
41 | MQSW | ≤ 0.2
42 | HCPM | ≤ 0.2
43 | PKWG | ≤ 0.2
44 | QSFA | ≤ 0.2
45 | YDCR | ≤ 0.2
46 | SNKT | ≤ 0.2
47 | VARV | ≤ 0.2
48 | KIDV | ≤ 0.2
49 | HHFG | ≤ 0.2
50 | GVSI | ≤ 0.2
51 | QSWS | 0.228
52 | PRAG | ≤ 0.2

Row | Variant | one-hybrid fitness for binding NBS DNA
53 | SRVV | ≤ 0.2
54 | YGLS | ≤ 0.2
55 | FHEG | ≤ 0.2
56 | SWAT | ≤ 0.2
57 | WHCL | ≤ 0.2
58 | MIGR | ≤ 0.2
59 | KGNI | ≤ 0.2
60 | RKCI | ≤ 0.2
61 | EVSH | ≤ 0.2
62 | VHPN | ≤ 0.2
63 | PVGE | ≤ 0.2
64 | EAAI | ≤ 0.2
65 | RKMN | ≤ 0.2
66 | VADR | ≤ 0.2
67 | WSIE | ≤ 0.2
68 | FNTV | ≤ 0.2
69 | LFDL | ≤ 0.2
70 | ETYI | ≤ 0.2
71 | RHHW | ≤ 0.2
72 | CSLI | ≤ 0.2
73 | VLEC | ≤ 0.2
74 | RHKP | ≤ 0.2
75 | LFRI | ≤ 0.2
76 | VRRP | ≤ 0.2
77 | MRST | ≤ 0.2
78 | GRAR | ≤ 0.2

Row | Variant | one-hybrid fitness for binding NBS DNA
79 | PWMG | ≤ 0.2
80 | CLKF | ≤ 0.2
81 | DKVH | ≤ 0.2
82 | YASM | ≤ 0.2
83 | AEMG | ≤ 0.2
84 | VKKM | ≤ 0.2
85 | SQIL | ≤ 0.2
86 | QHLV | ≤ 0.2
87 | PYHK | ≤ 0.2
88 | RNFS | ≤ 0.2
89 | QAVH | ≤ 0.2
90 | SNLA | ≤ 0.2
91 | ICWT | ≤ 0.2
92 | TAPV | ≤ 0.2
93 | EPPA | ≤ 0.2
94 | QQVD | ≤ 0.2
95 | EPQN | ≤ 0.2
96 | VLRS | ≤ 0.2
97 | APRH | ≤ 0.2
98 | PTAN | ≤ 0.2
99 | TWPY | ≤ 0.2
100 | LHEA | ≤ 0.2
101 | SEKD | ≤ 0.2
102 | AYPM | ≤ 0.2
103 | GDTQ | ≤ 0.2
104 | RLFV | ≤ 0.2

Row | Variant | one-hybrid fitness for binding NBS DNA
105 | RFWT | ≤ 0.2
106 | HCEI | ≤ 0.2
107 | GEHA | ≤ 0.2
108 | CELR | ≤ 0.2
109 | WNAT | ≤ 0.2
110 | TIEK | ≤ 0.2
111 | GWNR | ≤ 0.2
112 | RVNW | ≤ 0.2
113 | MRNI | ≤ 0.2
114 | CMMG | ≤ 0.2
115 | DHID | ≤ 0.2
116 | VPRG | ≤ 0.2
117 | YFDG | ≤ 0.2
118 | YVCD | ≤ 0.2
119 | QHIT | 0.349
120 | SRHA | ≤ 0.2
121 | SYCT | ≤ 0.2
122 | IFKN | ≤ 0.2
123 | RCGF | ≤ 0.2
124 | RYGE | ≤ 0.2
125 | RIYN | ≤ 0.2
126 | QWAL | ≤ 0.2
127 | NSPT | ≤ 0.2
128 | PVIV | ≤ 0.2
129 | HQWC | ≤ 0.2
130 | QVPR | ≤ 0.2

Row | Variant | one-hybrid fitness for binding NBS DNA
131 | RCNV | ≤ 0.2
132 | TPIW | ≤ 0.2
133 | KWAK | ≤ 0.2
134 | HSHS | ≤ 0.2
135 | GRER | ≤ 0.2
136 | CYLG | ≤ 0.2
137 | MRTV | ≤ 0.2
138 | CLTT | ≤ 0.2
139 | MLAL | ≤ 0.2
140 | NAQC | ≤ 0.2
141 | RHIK | ≤ 0.2
142 | LVQP | ≤ 0.2
143 | QHGK | ≤ 0.2
144 | DDVW | ≤ 0.2
145 | EMPT | ≤ 0.2
146 | QHVC | ≤ 0.2
147 | RFYR | ≤ 0.2
148 | KVKW | ≤ 0.2
149 | QYLC | ≤ 0.2
150 | YGNT | ≤ 0.2
151 | TCKM | ≤ 0.2
152 | QAQF | ≤ 0.2
153 | HPTM | ≤ 0.2
